Several values for one entry are separate records, joined by “and”; a condition that tells them apart may be missing. Equal values may be shown once. Read-outs that look alike come from different tables or passages of the source.
How the values were obtained:
human lung cancer 95D = test: DX1002 combined with CBP against human lung cancer 95D transplanted in nude mice; type: in vivo; settings: DX1002 400 mg/kg ig × 14, CBP 10 mg/kg ip × 5
Procedure: Group 2: CBP 10 mg/kg/day (ip×10 days, injected every other day)
29 days after inoculation (d17), all animals were sacrificed and weighed.

mouse melanoma B16 = settings: for RTV / Tumor inhibitory rate: CTX 60 × 1, DX1002 5 × 13; for Tumor inhibitory rate: based on tumor weight
Procedure: The administration volume of cyclophosphamide injection was per 10 g mouse via intraperitoneal injection. For the single use or the combined use of cyclophosphamide, on the next day of inoculation, cyclophosphamide was injected once. […] For the combination group of DX1002 and cyclophosphamide, DX1002 was firstly injected to the left side of peritoneal cavity, and then cyclophosphamide was injected to the right side of peritoneal cavity.
Each group includes 10 mice.

mouse liver cancer H22 = test: DX1002 singly used and combined with adriamycin against mouse liver cancer H22
[1] = tested on: human ovarian cancer A2780; test: DX1002 combined with paclitaxel against human ovarian cancer A2780 transplanted in nude mice; settings: for Tumor inhibitory rate / RTV (d 21): paclitaxel 10 × 11, DX1002 10 × 11; for RTV (d 21): relative tumor volume
human lung cancer A549 = test: DX1002 combined with paclitaxel against human lung cancer A549 transplanted in nude mice; settings: for Tumor inhitory rate / RTV (d 21): paclitaxel 5 × 11, DX1002 200 × 21; for RTV (d 21): relative tumor volume
human liver cancer huh-7 = test: DX1002 combined with sorafenib against human liver cancer huh-7 transplanted in nude mice; settings: for Terminal body weight: nude mice with huh-7 tumor, sorafenib 20 mg/kg × 11 po, DX1002 100 mg/kg × 11 po, combination printed 10 × 11 + 100 × 11; for Terminal body weight / RTV (d 21): x ± SD; for RTV (d 21): relative tumor volume; for RTV (d 21) / Tumor inhibitory rate: sorafenib 20 × 11, DX1002 100 × 11 po
human colon cancer HT-29 = test: DX1002 combined with BON against human colon cancer HT-29 transplanted in nude mice; settings: BON 1 × 7, DX1002 200 × 14; for RTV (d 15): relative tumor volume
mouse Lewis lung cancer = test: DX1002 singly used and combined with docetaxel against mouse Lewis lung cancer; settings: TXT 5 × 5, DX1002 1600 × 10; based on tumor weight; listed as docetaxel
[2] = adriamycin 3 × 6, DX1002 800 × 11

Question: For `N.N.O=C([O-])C1(C(=O)[O-])CCC1.[Pt+2]` [CBP, Carboplatin], which Tumor inhibitory rate (human lung cancer 95D) is on record?
Answer: The Tumor inhibitory rate was 41.85%.

Question: How did the RTV (mouse melanoma B16) turn out when `O=P1(N(CCCl)CCCl)NCCCO1` (stereo not drawn) [CTX, cyclophosphamide] was run?
Answer: Its RTV is 1.38 ± 0.49.

Question: What about the Tumor inhibitory rate (mouse melanoma B16) of the same molecule?
Answer: Its Tumor inhibitory rate is 57.80%.

Question: And the Tumor inhibitory rate (mouse melanoma B16; listed as cyclophosphamide)?
Answer: Its Tumor inhibitory rate is 44.04%.

Question: What about the Terminal body weight (mouse melanoma B16; mice with B16 tumor, CTX 60 mg/kg × 1, DX1002 5 mg/kg × 13) of the same molecule?
Answer: Its Terminal body weight is 23.03 ± 1.34 g.

Question: With `COc1ccc(/C=C(/C(=O)O)c2cc(OC)c(OC)c(OC)c2)c(O)c1O` [DX1002, (E)-3-(2′,3′-dihydroxyl-4′-methoxylphenyl)-2-(3″,4″,5″-trimethoxylphenyl)-2-acrylic acid] as the molecule, how does the “Tumor weight (g) x ± SD” value (mouse liver cancer H22; [2]) read?
Answer: Its value is 1.99 ± 0.53 g.

Question: What about the Tumor inhibitory rate (mouse liver cancer H22; adriamycin 3 × 6, DX1002 800 × 11, based on tumor weight) of the same molecule?
Answer: Its Tumor inhibitory rate is 57.67% and 57.02%.

Question: What about the RTV (mouse melanoma B16) of the same molecule?
Answer: Its RTV is 1.83 ± 0.72.

Question: And the Tumor inhibitory rate (mouse melanoma B16)?
Answer: Its Tumor inhibitory rate is 44.04%.

Question: What about the Tumor inhibitory rate [1] of the same molecule?
Answer: The Tumor inhibitory rate was 55.51% and 54.53%.

Question: What about the “RTV (d 21)” value ([1]; x ± SD) of the same molecule?
Answer: Its value is 18.89 ± 6.10.

Question: What about the Tumor inhibitory rate (human lung cancer 95D) of the same molecule?
Answer: The Tumor inhibitory rate was 56.65%.

Question: And the Tumor inhitory rate (human lung cancer A549)?
Answer: Its Tumor inhitory rate is 51.96%.

Question: And the “RTV (d 21)” value (human lung cancer A549; x ± SD)?
Answer: Its value is 4.90 ± 0.69.

Question: And the Terminal body weight (human liver cancer huh-7)?
Answer: Its Terminal body weight is 22.8 ± 1.0 g.

Question: What about the “RTV (d 21)” value (human liver cancer huh-7) of the same molecule?
Answer: The value was 3.93 ± 2.16.

Question: And the Tumor inhibitory rate (human liver cancer huh-7)?
Answer: The Tumor inhibitory rate was 58.81%.

Question: What about the Tumor inhibitory (human colon cancer HT-29) of the same molecule?
Answer: Its Tumor inhibitory is 48.87% and 50.31%.

Question: What about the “RTV (d 15)” value (human colon cancer HT-29) of the same molecule?
Answer: The value was 11.2985.

Question: With `CNC(=O)c1cc(Oc2ccc(NC(=O)Nc3ccc(Cl)c(C(F)(F)F)c3)cc2)ccn1` [Sorafenib, sorafenib] as the molecule, how does the Terminal body weight (human liver cancer huh-7) read?
Answer: Its Terminal body weight is 22.4 ± 0.5 g.

Question: And the “RTV (d 21)” value (human liver cancer huh-7)?
Answer: Its value is 4.71 ± 1.53.

Question: What about the Tumor inhibitory rate (human liver cancer huh-7) of the same molecule?
Answer: The Tumor inhibitory rate was 50.63%.

Question: What about the Tumor inhibitory rate (human liver cancer huh-7; listed as sorafenib) of the same molecule?
Answer: The Tumor inhibitory rate was 58.81%.

Question: How did the Tumor inhibitory rate (mouse Lewis lung cancer) turn out when `CC(=O)O[C@@]12CO[C@@H]1C[C@H](O)[C@@]1(C)C(=O)[C@H](O)C3=C(C)[C@@H](OC(=O)[C@H](O)[C@@H](NC(=O)OC(C)(C)C)c4ccccc4)C[C@@](O)([C@@H](OC(=O)c4ccccc4)[C@H]21)C3(C)C` [TXT, docetaxel] was run?
Answer: Its Tumor inhibitory rate is 53.65%.

Question: For `COc1cccc2c1C(=O)c1c(O)c3c(c(O)c1C2=O)C[C@@](O)(C(=O)CO)C[C@@H]3O[C@H]1C[C@H](N)[C@H](O)[C@H](C)O1` [adriamycin], which “Tumor weight (g) x ± SD” value (mouse liver cancer H22; [2]) is on record?
Answer: The value was 1.96 ± 0.47 g.

Question: And the “Body weight (g) x ± SD” value (mouse liver cancer H22; mice with H22 tumor, adriamycin 3 mg/kg × 6, DX1002 800 mg/kg × 11 oral)?
Answer: The value was 21.4 ± 3.5 g.

Question: How did the Terminal body weight ([1]; nude mice with A2780 tumor, paclitaxel 10 mg/kg × 11, DX1002 10 mg/kg × 11, x ± SD) turn out when `CC(=O)O[C@H]1C(=O)[C@@]2(C)[C@H]([C@H](OC(=O)c3ccccc3)[C@]3(O)C[C@H](OC(=O)[C@H](O)[C@@H](NC(=O)c4ccccc4)c4ccccc4)C(C)=C1C3(C)C)[C@]1(OC(C)=O)CO[C@@H]1C[C@@H]2O` [paclitaxel, Paclitaxel] was run?
Answer: The Terminal body weight was 22.0 ± 0.6 g.

Question: What about the Tumor inhibitory rate [1] of the same molecule?
Answer: Its Tumor inhibitory rate is 54.53%.

Question: What about the Tumor inhibitory rate ([1]; listed as Paclitaxel) of the same molecule?
Answer: Its Tumor inhibitory rate is 55.51%.

Question: And the “RTV (d 21)” value ([1]; x ± SD)?
Answer: The value was 18.48 ± 3.58.

Question: And the Terminal weight (human lung cancer A549; nude mice with A549 tumor, paclitaxel 5 mg/kg × 11 ip, DX1002 200 mg/kg × 21 ig, x ± SD)?
Answer: The Terminal weight was 23.8 ± 1.2 g.

Question: And the Tumor inhitory rate (human lung cancer A549)?
Answer: The Tumor inhitory rate was 61.08%.

Question: What about the “RTV (d 21)” value (human lung cancer A549; x ± SD) of the same molecule?
Answer: The value was 3.97 ± 0.90.

Question: bleomycin hydrochloride [BON] was tested. Which Tumor inhibitory (human colon cancer HT-29; hydrochloride) did it give?
Answer: The Tumor inhibitory was 48.87%.

Question: What about the Tumor inhibitory (human colon cancer HT-29; listed as bleomycin hydrochloride, hydrochloride) of the same molecule?
Answer: The Tumor inhibitory was 5.31%.

Question: And the “RTV (d 15)” value (human colon cancer HT-29)?
Answer: The value was 8.167.
